Laboratory results as given in the RNAGym collection of RNA variant scans (doi:10.7554/elife.90254).
The source gives no read counts; variants with many changes may rest on few reads.

B1: OR4K15 (parent)
chain: GUUAACGGUCAUAGGCCAUGGAAACUAGGAGCACCAUUUCGCUGCCAGUGAAGAAAUGAACAAAGAAAAUCUGGGCCAGGCAGGCAUCAAAAGAAAUAGUCUUGCGCUCAACCAGAAAGUCUGUAAUCAUUUUAAGGGUA

Variants of: B1
Experiment: self-cleavage, relative activity (ratio to wild type); higher = more cleavage; in vitro, sequencing; the parent is a self-cleaving ribozyme

Row | Variant | self-cleavage
1 | GUUAACGGUCAUAGGCCAUGGAAACUAGGAGCACCAUUUCGCAGCCAGUGAAGAAAUGAACAAAGAAAAUCUGGGCCAGGCACGCAUCAAAAGAAAUAGUCUUGCACUCAACCAGAAAGUCUGUAAUCAUUUUAAGGGUA [U43A G83C G106A] | 0.02
2 | GUUAACGGUCAUAGGCCAUGGAAACUAGGAGCACCAUUUCGCUGCCAGUGAUGAAACGAACAAAGAAAACCUGGGCCAGGCAGGCAUCAAAAGAAAUAGUCUUGCGCUCAACCAGGAAGUCUGUAAUCAUGUUAAGGGUA [A52U U57C U70C A116G U131G] | 1.39
3 | GUUAACGGUCAUAGGCCAUGGAAACUAGGAGCACCAUUUCGCUGCCAGCGAAGGAAUGAACAAAGAAAAUCUGGGCCAGGCAGGCAUCAAAAGAAAUAGUCUUGCGCUCAACCAGCAAGUCUGUAAUCAUUUUAAGGGUA [U49C A54G A116C] | 0.21
4 | GUUAACGGUCAUAGGCCAUGGAAACUAGGAGCACCAAUUCGCUGCCAGUGAAGAAAUGGACAAAGAAAAUCUGGGCCAGGCAGGCAUCAAAAGAGAUAGUCUUGCGCUCAACCAGAAAGUCUGUAAUCAUUUUAAGGGUA [U37A A59G A95G] | 2.76
5 | GUUAACGGUCAUAGGCCAUGGAAACUAGGAGCACCAUUUCGCUGCCAGUGAAGAAAUGAACAAAGAAAAUCUGGGCCAGGCAGGCAUCGAAGGAAAUAGUCUAGCGCUCAACCAGAAAGUCUGUAAUCAUUUUAAGGGUA [A89G A92G U103A] | 0.66
6 | GUUAACGGUCAUAGGCCAUGGAAACUAGGAGCACCAUUUCGCUGCCAGUGAAGAAAUGAACAAAGAAAAUCUGGGCCAGGCCGGCAUCGAAAGAAAUAGUCUUGCGCUCAACCAGAAAGACUGUAAUCAUUUUAAGGGUA [A82C A89G U120A] | 0.09
7 | GUUAACAGUCAUAGGCCAUGGAAACUAGGAGCACCAUUUCGCUGCCAGUGAAGAAAUGAUCAAAGAAGAUCUGGGCCAGGCAGGCAUCAAAAGAAAUAGGCUUGCGCUCAACCUGGAAGUCUGUAAUCAUUUUAAGGGUG [G7A A60U A68G U100G A114U A116G A140G] | 0.01
8 | GUUAACGGUCAUAGGCCAUGGAAAUUAGGAGCACCAUUUCGCUGCCAGUGAAGAAAUGAACAAAGAAAAUCUGGGCCAGGCAGGCAUCAAAUGAAGUAGUCUUGCGCUCAACCAGAAAGUCUGUAAUCAUUUUAAGGGUA [C25U A92U A96G] | 1.71
9 | GUUAACGGUCAUAGGCCAUGGAAACUAGGAGCACCAUUUCGCUGCCGGUGAAGAAAUGAACAAAGAAAAUCUGGGCCAGGAAGGCAUCAAAGGAAAUAGUCUUGCGCACAACCAGAAAGUCUGUAAUCAUUUUAAGGGUA [A47G C81A A92G U108A] | 0
10 | GUUAACGGUCAUAGGCCAUGGAAACUAGGAGCACCAUUUCGCUGCCAGUGAAGAAAUGAACGAAGAAAAUCUGGGCCAGGCAGGCGUCAAAAGAAAUAGUCUUGCGCUCCACCAGAAAGUCUGUAAUCAUCCUAAGGGUA [A62G A86G A110C U131C U132C] | 0.2
11 | GUUAACGGUCAUGGGCCAUGGAAACUAGGAGCACCAUUUCGCUGCCAGUGAAGAUAUGUACAAAGAAAAUUUGGGCCAGGCAGGCAUCAAAAGAAAUAGUCUUGCGCUCAACCAGAAAGUCUGUAAUCAUUUUAAGGGUA [A13G A55U A59U C71U] | 0.21
12 | GUUAACGGUCAUAGGCCAUGGAAACUAGGAGCACCGUUUCGCUGCCAGUGAAGAGAUGAACAAAGAAAAUCUGGGCCAGGCAGGCAUCAAAAGAAAUAGCCUUGCGCUCGACCAGAAAGUCUGUAAUCAUUUUAAGGGUA [A36G A55G U100C A110G] | 0.15
13 | GUUAACGGUCAUAGGCCAUGGAAACUAGGAGCACCAUUUCGCUGCCAGUGAAGAAAUGAACAAAGGAAGUCUGGGCCAGGCAGGCAUCAAAAGAAAUAGCCUUGCGCUCAACCAGAAAAUCUGUAAUCAUUUUAAGGGUA [A66G A69G U100C G119A] | 2.39
14 | GCUAACGGUCAUAGGCCAUGGAAACUAGGAGCACCAUUUCGCUGCCAGUGAAGAAAUGAACAAAGAAAAUCUGGGCCAGGCAGGCAUCAAAAGAAAUAGUCUUGCGCUAAACCAGAAAGUCUGUAAUCACUUUAAGGGUA [U2C C109A U130C] | 0.09
15 | GAUAACGGUCAUAGGCCAUGGAAACUAGGAGCACCAUUUCGCUGCCAGUGAAGAAAUGAACAAAGAAAAUCUGGGCCAGGCAGGCAUCAAAAGGAAUAGUCUUGCGCUCAACCAGAAAGUCUGUAAUCAUUUUAAGGGCA [U2A A94G U139C] | 0.84
16 | GUUAACGGUCAUAGGCCAUGGAAACUAGGAGCACCCUUUCGCUGCCAGUGAAGAAGUGAACAAAGAAAAUCUGGGCCAGGCAGGCAUCAGAAGAAAUAGUCUUGCGCUCAACCAGAAAGUCUGUAAUCAUUUUAAGGGUA [A36C A56G A90G] | 0.71
17 | GUUAGCGGUCAUAGGCCAUGGAAACUAGGAGCACCAUCUCGCUGCCAGUGAAGAAAUGAACAAAGAAAAUCUGGGCCAGGCAGGCAUCAAAAGAAAUAGUCUUGCGCUCAACCAGAAAGUCUGUAAUCAUCUUAAGGGUA [A5G U38C U131C] | 1
18 | GUUAUCGGUCAUAGGCCAUGGAAACUAGGAGCACCAUUUCGCUGCCAGUGAAGAAAUGAGCAAAGAAAAUCUGGGCCAGGCAGGCACCAAAAGAAAUAGUCCUGCGCUCAACCGGAAAGUCUGUAAUCAUUUUAAGGGUA [A5U A60G U87C U102C A114G] | 0.04
19 | GUUAACGGUCAUAGGCCAUGGAAACUAGGAGCACCAUUACGCUGCCAGUGAAGAAAUGAACAAAGAAAAUCUGGGCCAGGCUGGCAUCAAAAGAAAUAGUCUUGCGCUCAACCAGAAAGUCUGUAAUCCUUUUAAGGGUA [U39A A82U A129C] | 0.06
20 | GUUAACGGUCAUAGGCCAAGGAAACUAGGAGCACCAUUUCGCUGCCAGUGAAGAAAUGAACAAGGAAAAUCUGGGCCAGGCAGGCAUCAAAGGAAAUAGUCUUGCGCUCAACCAGAAAGUCUGUAAUCAUUUUAAGGGUA [U19A A64G A92G] | 1.78
21 | GUUAACGGUCAUAGGCCAUGGAAACUAGGAGCACCAUUUCGCCGCCAGUGAAGAAAUGAACAAAGAAAAUCUGGGCCAGGCAGGCAUCAAAAGAAAUAGUCUUGCGCUCAGCCAGGAAGUCUGUAAUCAUUUUAAGGGUA [U43C A111G A116G] | 0.01
